The list shows a part of the results. These are noisy estimates, calculated here from bound and input reads.

For the test, the target named is T1, Pho4 (S. cerevisiae) (UniProt P07270).
T1 sequence: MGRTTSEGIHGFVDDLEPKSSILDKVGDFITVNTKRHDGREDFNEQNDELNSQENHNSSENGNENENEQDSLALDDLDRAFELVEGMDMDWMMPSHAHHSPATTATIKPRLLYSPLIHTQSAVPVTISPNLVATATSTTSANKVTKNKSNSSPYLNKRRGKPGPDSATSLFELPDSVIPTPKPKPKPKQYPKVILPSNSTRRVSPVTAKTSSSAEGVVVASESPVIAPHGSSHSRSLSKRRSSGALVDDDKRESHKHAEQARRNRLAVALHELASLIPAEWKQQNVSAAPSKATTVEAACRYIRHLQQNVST
The experiment in a line: relative binding free energy (BET-seq); higher = weaker binding. The settings on record: reference: library average.
As to TGTGACACGTGGCTAG, the “relative binding free energy” value worked out at 0.01 kcal/mol.
For the sequence TTTATCACGTGGAGTA, the “relative binding free energy” value came to 0.12 kcal/mol.
The result for GCCTCCACGTGGGGTG reads -0.06 kcal/mol; that for GTTCTCACGTGTGGCG, 0.32 kcal/mol; that for TGGTGCACGTGCAGTA, -0.15 kcal/mol.
The result for GGCTGCACGTGGTTGG reads -0.02 kcal/mol.
In the case of TATTTCACGTGTATAT it was 0.23 kcal/mol; in that of TGAAGCACGTGTTTTG, -0.05 kcal/mol; in that of GTCGTCACGTGAGCGG, 0.32 kcal/mol.
TTATTCACGTGGCGCG: the “relative binding free energy” value was determined as 0.17 kcal/mol.
In the case of AGTTGCACGTGGACTT it was -0.03 kcal/mol; in that of GTAGCCACGTGGGGGC, -0.13 kcal/mol; in that of TGTGTCACGTGAGTAT, 0.19 kcal/mol.
The result for GTGTTCACGTGTGAGT reads 0.39 kcal/mol; that for AGTGGCACGTGTTGGA, -0.09 kcal/mol; that for GATGTCACGTGCTGTT, 0.11 kcal/mol.
The result for TGGTTCACGTGTTCAA reads 0.24 kcal/mol.
On to TCAGTCACGTGAGTAT, for which the “relative binding free energy” value worked out at 0.37 kcal/mol.
In the case of ATTCGCACGTGTTGGT it was -0.08 kcal/mol; in that of TCGGACACGTGAAGGT, 0.19 kcal/mol; in that of GTAAACACGTGTTCTT, 0.13 kcal/mol.
As for ATTAGCACGTGATTTT, the “relative binding free energy” value was found to be 0.09 kcal/mol.
The result for AAGCTCACGTGGTTGA reads 0.25 kcal/mol; that for GAGGTCACGTGTTCTG, 0.21 kcal/mol; that for TCGAACACGTGGGAGG, -0.08 kcal/mol.
Regarding CGTTTCACGTGGAGAT, the “relative binding free energy” value amounted to 0.41 kcal/mol.
As for TATGTCACGTGTATAC, the “relative binding free energy” value is -0.03 kcal/mol.
In the case of GGAAGCACGTGTGTCT, the “relative binding free energy” value turned out to be 0.03 kcal/mol.
The result for GAGATCACGTGTACGG reads 0.27 kcal/mol.
In the case of ATTGGCACGTGCGCGT it was -0.25 kcal/mol; in that of CGGTTCACGTGCAGGA, 0.22 kcal/mol; in that of GGTTTCACGTGGCGGA, 0.37 kcal/mol.
The result for TGTACCACGTGGTGAG reads -0.06 kcal/mol.
Take CGAGTCACGTGGGGCG: the “relative binding free energy” value worked out at 0.06 kcal/mol.
The result for TTAATCACGTGAGAGA reads 0.32 kcal/mol.
GAGCTCACGTGGTTAG: the “relative binding free energy” value stood at 0.28 kcal/mol.
The result for GGGCACACGTGGGGAA reads 0.15 kcal/mol; that for ATCTTCACGTGGTGCG, 0.21 kcal/mol; that for ATGGGCACGTGTGAAG, -0.08 kcal/mol.
In the case of AATGTCACGTGGTGAG it was 0.02 kcal/mol; in that of GTGTACACGTGAAAAG, 0.4 kcal/mol.
The result for TAAATCACGTGGTTCG reads 0.06 kcal/mol.
Consider TTTATCACGTGGCAGG, for which the “relative binding free energy” value was determined as 0.19 kcal/mol.
In the case of TCTTGCACGTGTCTTT it was -0.05 kcal/mol; in that of GATAACACGTGAGTTA, 0.37 kcal/mol; in that of GGGGTCACGTGGACTA, 0.11 kcal/mol.
In the case of GAGGCCACGTGGTGTT it was -0.16 kcal/mol.
In the case of GGATACACGTGTAATG it was 0.18 kcal/mol; in that of GTGGGCACGTGAGTAG, 0.14 kcal/mol.
Regarding GGTTCCACGTGTGGAG, the “relative binding free energy” value was found to be 0.17 kcal/mol.
In the case of ACGGACACGTGTTTTT it was 0.27 kcal/mol; in that of CTGTACACGTGGAATG, 0.21 kcal/mol; in that of ATTGTCACGTGCCAGT, 0.09 kcal/mol.
In the case of ATCTTCACGTGGTTGA it was 0.17 kcal/mol.
In the case of AAGTACACGTGGGGTA it was -0.15 kcal/mol; in that of TATGACACGTGAGTTT, 0.24 kcal/mol.
For TTAGGCACGTGGCTGG, the “relative binding free energy” value was -0.15 kcal/mol.
In the case of TGGTGCACGTGTAAGT it was 0.11 kcal/mol; in that of AGTGACACGTGCGCGG, -0.17 kcal/mol.
In the case of TTTATCACGTGCGATG it was 0.09 kcal/mol.
For the sequence AATGCCACGTGGGTTA, the “relative binding free energy” value is -0.09 kcal/mol.
As to AGATTCACGTGTGAAG, the “relative binding free energy” value came out at 0.23 kcal/mol.
In the case of TATTACACGTGGTATA it was -0.04 kcal/mol.
The result for AGGTCCACGTGTTTGA reads -0.02 kcal/mol; that for ATAATCACGTGGTGAT, -0.08 kcal/mol; that for TCGTTCACGTGTAAGT, 0.28 kcal/mol.
The result for AATCGCACGTGGGAGG reads -0.21 kcal/mol; that for AGGAGCACGTGGGTAC, -0.23 kcal/mol; that for CGGTGCACGTGTTTCG, 0.05 kcal/mol.
As to ACGGGCACGTGGATGG, the “relative binding free energy” value is -0.16 kcal/mol.
In the case of AGCGTCACGTGTAGGT it was 0.04 kcal/mol; in that of AGCTTCACGTGGTTTG, 0.23 kcal/mol.
In the case of TTTCTCACGTGGTATA it was 0.3 kcal/mol.
In the case of TATAGCACGTGGGTGC it was -0.23 kcal/mol; in that of CTGTTCACGTGTTCGG, 0.29 kcal/mol; in that of AATAGCACGTGATGGA, 0.15 kcal/mol.
Take AGGGGCACGTGTGACT: the “relative binding free energy” value is -0.12 kcal/mol.
Take TTGGCCACGTGTGTCT: the “relative binding free energy” value was -0.04 kcal/mol.
In the case of GTGTTCACGTGGCTGT it was 0.38 kcal/mol; in that of GGAAGCACGTGCGTTG, -0.01 kcal/mol.
As to TTACGCACGTGCTGTT, the “relative binding free energy” value was -0.23 kcal/mol.
In the case of TGGGCCACGTGGAGAT it was -0.12 kcal/mol; in that of GGGTACACGTGAAAAG, 0.25 kcal/mol; in that of CATTTCACGTGTTAGT, 0.23 kcal/mol.
In the case of ATAGGCACGTGTAGGG it was -0.03 kcal/mol; in that of AGAGGCACGTGTATGC, -0.08 kcal/mol; in that of TAGGTCACGTGCTATT, 0.06 kcal/mol.
The result for AGTAGCACGTGTCGGG reads -0.03 kcal/mol; that for TGGAGCACGTGAGATA, 0.15 kcal/mol.
As to TTAAACACGTGTTGAA, the “relative binding free energy” value was 0.05 kcal/mol.
For TTCGTCACGTGTTGAT, the “relative binding free energy” value was 0.03 kcal/mol.
For GTTGACACGTGCTGGA, the “relative binding free energy” value is 0 kcal/mol.
The result for TAAAGCACGTGGATTG reads -0.06 kcal/mol.
In the case of CGAGTCACGTGCTGGT it was 0.14 kcal/mol; in that of ATTTCCACGTGTTATG, 0.07 kcal/mol.
For GGGTACACGTGATATT, the “relative binding free energy” value was 0.23 kcal/mol.
In the case of GTATTCACGTGCGGTA it was 0.25 kcal/mol; in that of ACCGGCACGTGTAGGG, -0.09 kcal/mol.
CGAAGCACGTGTAGTG: the “relative binding free energy” value was -0.06 kcal/mol.
The result for CGTGGCACGTGGGTAT reads -0.18 kcal/mol.
In the case of GGGTTCACGTGTTTTA it was 0.37 kcal/mol.
Consider GGGAGCACGTGACTGT, for which the “relative binding free energy” value came to 0.14 kcal/mol.
The result for TAAGGCACGTGATGAA reads -0.01 kcal/mol.
In the case of GAGGTCACGTGGGAGG it was 0.07 kcal/mol.
In the case of GCGGTCACGTGGTAGT it was 0.07 kcal/mol; in that of TGGTGCACGTGGAGGC, 0.04 kcal/mol; in that of TATGTCACGTGGAGTT, 0.06 kcal/mol.
Regarding TTCGTCACGTGTGTAA, the “relative binding free energy” value came to 0.16 kcal/mol.
In the case of GTGACCACGTGTAGTG it was -0.05 kcal/mol; in that of CACAGCACGTGGGGGG, -0.31 kcal/mol; in that of AGTAGCACGTGATGTT, 0.03 kcal/mol.
The result for CGGATCACGTGATAGT reads 0.32 kcal/mol; that for GAATGCACGTGGCAGG, -0.04 kcal/mol; that for CGATACACGTGCGGGT, 0.15 kcal/mol.
Consider GGTTGCACGTGGTGCG, for which the “relative binding free energy” value is -0.04 kcal/mol.
